In all, about 44,000 compounds went through this assay and about 340 (0.77%) were called active. Not shown: some 5% with an inconclusive outcome. The call rests on the fitted dose curve; in most records, active means well fitted inhibition curve with a large enough effect; inconclusive means small, poorly fitted or top-dose-only effect; inactive means flat fitted curve, though single readings scatter. The list shows a part of the results.
assay: Acumen qHTS Assay for Inhibitors of the mTORC1 Signaling Pathway in MEF (Tsc2-/-, p53-/-) Cells: Sytravon; settings: phospho-rpS6 immunofluorescence/PI, 24 h; series mostly up to 38.3 µM; activity change, negative = inhibition: at the top concentration;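 further: plate controls were DMSO for no effect and rapamycin for full effect; nearly all actives have a fitted effect of over 50% in size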
Outline: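 Tsc2-/-, p53-/- mouse embryonic fibroblasts (empty-vector line) exposed to compound 24 hrs at 37 C, fixed, immunostained for phospho-rpS6 and counterstained with propidium iodide. Acumen laser scanning gives % positive cells from Alexa 488/PI ratio, thresholded using 7.5 nM rapamycin; PI count gives viability.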

Activity change, negative = inhibition, inactive:
Cc1c(CC(=O)NCCc2ccccc2F)c(=O)oc2c(C)c3occ(C(C)(C)C)c3cc12 -2.43%
COc1ccc(NC(=O)CSc2cn(CC(=O)N3CCOCC3)c3ccccc23)cc1OC -12.8%
COc1cccc(N2CCN(C(=O)c3ccc4c(=O)n(CCc5ccccc5)c(=O)[nH]c4c3)CC2)c1 -17.3%
CC(C)COC(=O)/C(C#N)=C\c1ccc(-c2ccccc2Cl)o1 -1.12%
CCc1ccc(S(=O)(=O)c2nnn3c2nc(N2CCC(C)CC2)c2cc(Cl)ccc23)cc1 -0.0055%
COc1ccc(-c2cc(C(=O)NCc3cc(OC)c(OC)c(OC)c3)[nH]n2)cc1 -4.52%
Cc1ccc(Cl)c2c1N[C@@H](c1ccc(C(=O)O)cc1)[C@H]1CC=C[C@@H]21 12.9%
Cc1ccc(C)c(NC(=O)CCN2C(=O)c3ccccc3Sc3ncccc32)c1 -0.914%
O=C(Nc1ccccc1)C(Cc1ccccc1)N1Cc2ccccc2C1=O (stereo unspecified) -3.11%
CCOc1ccc(-c2nc(CSCC(=O)N3CCN(c4cccc(C(F)(F)F)c4)CC3)c(C)o2)cc1 -2.73%
COc1ccc(C2=NS(=O)(=O)N(C)C(C(=O)Nc3cc(C)ccc3O)=C2)cc1OC -0.628%
Cc1nc(N2C(=O)c3oc4ccccc4c(=O)c3C2c2ccccc2F)sc1C (stereo unspecified) 6.42%
COc1cccc(N2CCN(S(=O)(=O)c3cc(Br)cc4c3N(C(=O)C3CC3)CC4)CC2)c1 2.32%
Cc1cccc(N2C(=O)CSC23C(=O)N(Cc2cccc(F)c2)c2ccccc23)c1 (stereo unspecified) -12.8%
CN1CCN(C(CNC(=O)C(=O)Nc2ccccc2)c2ccc3c(c2)OCO3)CC1 (stereo unspecified) -0.143%
Cc1ccc(C)c(CSc2nc3ncccc3[nH]2)c1 -1.32%
Cc1cccc(-c2noc(CN(C(=O)COc3ccc(C(C)C)cc3)C(C)C)n2)c1 -17.8%
CCOC(=O)c1c(C)n(-c2ccccc2)c2ccc(OC(=O)c3ccccc3)cc12 -11.4%
COc1cccc(CNC(=O)CSc2nc(=O)[nH]c3c2CCCC3)c1 -5.03%
CCc1ccc(NC(=O)Cn2c(=O)c(-c3ccccc3NC(C)=O)nc3ccccc32)cc1 -11.9%
Oc1c(C(c2ccc(Cl)cc2Cl)N2CCOCC2)sc2nc(-c3ccco3)nn12 (stereo unspecified) -6.8%
CCOc1ccc(S(=O)(=O)N(CC(=O)NCCSCc2ccc(C)cc2)c2ccccc2)cc1 -21.6%
CCn1ccc2cc(S(=O)(=O)N3CCCN(C(=O)Nc4ccccc4C(F)(F)F)CC3)ccc21 2.87%
Cc1ccc2c(=O)cc(C(=O)Nc3nnc(CC(C)C)s3)oc2c1C -4.44%
O=C(CC1N=C2c3ccccc3N=C(SCC(=O)Nc3cccc(Cl)c3)N2C1=O)NCc1cccs1 (stereo unspecified) -1.75%
Cc1cccc(Cn2c(=O)n(CCC(=O)NCc3ccc4c(c3)OCO4)c(=O)c3sccc32)c1 -5.84%

From PubChem BioAssay AID493208 (National Center for Advancing Translational Sciences (NCATS), 2011)
